Source: the supplement of paper PMC8183993
“And” between values parts separate entries of the source, which are not always exact repeats. Identical values can stand only once. Counter-ions that a name gives are not always drawn. ± gives the standard deviation of the averaged measurements. Whole data set: some 3,200 compounds, median “nuclei count (viability) relative to DMSO” near 99, cut for the lowest 2% near 16. This is one part of the list.

System: U2OS
Experiment: nuclei count (viability) relative to DMSO (% of DMSO); higher = more viable cells
Conditions: 10 µM; 24 h
Description: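 Primary image-based screen in U2OS cells: compounds at 10 uM for 24 h, then a 1 h o-propargyl-puromycin (OPP) pulse, click labelling, and high-throughput microscopy. Mean cytoplasmic OPP intensity and nuclei count were normalised to DMSO wells within each plate (DMSO = 100) and averaged over triplicate plates.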

Q: How did the nuclei count turn out when Cc1cc(N)c2ccccc2[n+]1CCCCCCCCCC[n+]1c(C)cc(N)c2ccccc21 [Dequalinium dichloride] was run?
A: The nuclei count was 98.5.

Q: How did the nuclei count turn out when Nc1ccn([C@@H]2CS[C@H](CO)O2)c(=O)n1 [Lamivudine] was run?
A: Its nuclei count is 96.6.

Q: Which nuclei count does the source give for Clc1cccc2c1CN(C1=NCCN1)C2 here?
A: Its nuclei count is 98.5.

Q: Which nuclei count does the source give for O=C(/C=C/c1c(C(=O)O)[nH]c2cc(Cl)cc(Cl)c12)Nc1ccccc1 [Gavestinel] here?
A: The nuclei count was 93.2.

Q: How did the nuclei count turn out when Cn1ccc2cc3c(cc21)CCN3C(=O)Nc1cccnc1 was run?
A: Its nuclei count is 102.

Q: For N#Cc1c(NC(=O)c2cccc3ccccc23)sc2c1CCCC2 [JNK inhibitor IX], which nuclei count is on record?
A: Its nuclei count is 27.9.

Q: With C=CC(=O)Nc1cccc(Nc2nc(Nc3ccc(OCCOC)cc3)ncc2F)c1 as the compound, how does the nuclei count read?
A: Its nuclei count is 34.7.

Q: CCC(=O)Nc1cccc(Oc2nc(Nc3ccc(N4CCN(C)CC4)cc3OC)ncc2Cl)c1 was tested. Which nuclei count did it give?
A: Its nuclei count is 94.6.

Q: With C#C[C@]1(O)CC[C@H]2[C@@H]3CCC4=CC(=O)CC[C@@H]4[C@H]3CC[C@@]21CC [Levonorgestrel (Levonelle)] as the compound, how does the nuclei count read?
A: Its nuclei count is 101.

Q: For C#C[C@]1(O)CC[C@H]2[C@@H]3CCC4=CC(=O)CC[C@@H]4[C@H]3CC[C@@]21CC [Norgestrel-(-)-D], which nuclei count is on record?
A: The nuclei count was 99.

Q: For N=C(N)NCCN1CCCCCCC1 [Guanethidine sulfate], which nuclei count is on record?
A: The nuclei count was 103.

Q: How did the nuclei count turn out when N#C/C(=C\c1ccc(O)c(O)c1)C(=O)NCc1ccccc1 was run?
A: Its nuclei count is 102 and 98.5.

Q: For CC1(C)[C@@H](OC(=O)CCC(=O)O)CC[C@]2(C)[C@H]3C(=O)C=C4[C@@H]5C[C@@](C)(C(=O)O)CC[C@]5(C)CC[C@@]4(C)[C@]3(C)CC[C@@H]12 [Carbenoxolone disodium salt], which nuclei count is on record?
A: Its nuclei count is 94.8.

Q: With CC(CN(C)C)CN1c2ccccc2Sc2ccccc21 (centres undefined) [Trimeprazine tartrate] as the compound, how does the nuclei count read?
A: Its nuclei count is 105.

Q: For Oc1cccc(-c2nc(N3CCOCC3)c3oc4ncccc4c3n2)c1, which nuclei count is on record?
A: The nuclei count was 78.4 ± 1.2.

Q: How did the nuclei count turn out when C[C@@H]1COC(Nc2ccc3ncnc(Nc4ccc(OCc5nccs5)c(Cl)c4)c3c2)=N1 was run?
A: The nuclei count was 97.4 ± 1.9.

Q: For O=C(/C=C/c1ccc(O)c(O)c1)O[C@@H]1C[C@](O)(C(=O)O)C[C@@H](O)[C@H]1O [Chlorogenic acid], which nuclei count is on record?
A: The nuclei count was 107.

Q: How did the nuclei count turn out when C=CCOC(Cn1ccnc1)c1ccc(Cl)cc1Cl (centres undefined) [Enilconazole] was run?
A: Its nuclei count is 108.

Q: C[C@]1(Cn2ccnn2)[C@H](C(=O)O)N2C(=O)C[C@H]2S1(=O)=O [Tazobactam] was tested. Which nuclei count did it give?
A: The nuclei count was 94.4 ± 10.

Q: CC(CN(C)C)C(C)(O)Cc1ccc(Cl)cc1 (centres undefined) [Clobutinol hydrochloride] was tested. Which nuclei count did it give?
A: The nuclei count was 97.1.

Q: With CCN(CC)CCCCNc1ncc2cc(-c3cc(OC)cc(OC)c3)c(NC(=O)NC(C)(C)C)nc2n1 as the compound, how does the nuclei count read?
A: Its nuclei count is 60.2 ± 12.

Q: How did the nuclei count turn out when CC[C@@H](CO)NCCN[C@@H](CC)CO [Ethambutol dihydrochloride] was run?
A: Its nuclei count is 99.3.

Q: With CC[C@@H](CO)NCCN[C@@H](CC)CO [Ethambutol HCl] as the compound, how does the nuclei count read?
A: Its nuclei count is 97.2.

Q: With CC1=C(/C=C/C(=C/C=C/C(C)=C/C(=O)O)c2ccc(C)cc2)C(C)(C)CCC1 as the compound, how does the nuclei count read?
A: Its nuclei count is 96.4.

Q: How did the nuclei count turn out when O=C(NCCN1CCCCC1)c1ccc(I)cc1 [N-[2-(Piperidinylamino)ethyl]-4-iodobenzamide] was run?
A: Its nuclei count is 103.

Q: For CC(C)C[C@H](NC(=O)CNC(=O)c1cc(Cl)ccc1Cl)B1OC(=O)C(CC(=O)O)(CC(=O)O)O1, which nuclei count is on record?
A: Its nuclei count is 11.6.

Q: For CC(=O)OCC(=O)[C@@]1(OC(C)=O)[C@@H](C)C[C@H]2[C@@H]3C[C@H](F)C4=CC(=O)C=C[C@]4(C)[C@@]3(F)[C@@H](O)C[C@@]21C [Diflorasone Diacetate], which nuclei count is on record?
A: The nuclei count was 105.

Q: Which nuclei count does the source give for CC1=C(/C=C/C(C)=C\C=C\C(C)=C\C(=O)O)C(C)(C)CCC1 [9-cis Retinoic acid] here?
A: The nuclei count was 81.7.

Q: CCCOc1ccc(C(=O)OCCN(CC)CC)cc1N [Proparacaine hydrochloride] was tested. Which nuclei count did it give?
A: Its nuclei count is 99.6.

Q: CC(=O)N[C@@H](CSCC=C(C)CCC=C(C)CCC=C(C)C)C(=O)O [Acetyl-S-farnesyl-L-cysteine] was tested. Which nuclei count did it give?
A: The nuclei count was 84.8.

Q: For COC(=O)Nc1ccc2[nH]cc(CCNC(C)=O)c2c1, which nuclei count is on record?
A: Its nuclei count is 96.2.

Q: CCCCCCCCCCCCCCCC(=O)C1=C(O)[C@@H](CO)OC1=O was tested. Which nuclei count did it give?
A: The nuclei count was 95.2.

Q: For Cc1cc(C)c(S(=O)(=O)Nc2cccc(C(F)(F)F)c2)c(C)c1, which nuclei count is on record?
A: The nuclei count was 104.

Q: How did the nuclei count turn out when NC(=O)c1cccc(N)c1 [3-Aminobenzamide] was run?
A: Its nuclei count is 102.

Q: For Cc1ccc(-n2nc(C(C)(C)C)cc2NC(=O)Nc2ccc(OCCN3CCOCC3)c3ccccc23)cc1 [BIRB 796 (Doramapimod)], which nuclei count is on record?
A: Its nuclei count is 94.7.

Q: How did the nuclei count turn out when C=CCSCC1Nc2cc(Cl)c(S(N)(=O)=O)cc2S(=O)(=O)N1 (centres undefined) [Althiazide] was run?
A: Its nuclei count is 91.1.

Q: With CNC(=O)c1ccc(C)c(-n2c(C)cc(OCc3ccc(F)cc3F)c(Br)c2=O)c1 as the compound, how does the nuclei count read?
A: Its nuclei count is 97.2.

Q: How did the nuclei count turn out when CN(C)CC/C=C1/c2ccccc2COc2ccc(CC(=O)O)cc21 [Olopatadine hydrochloride] was run?
A: The nuclei count was 104.

Q: With c1nc(CC2CCNCC2)c[nH]1 [Immepip dihydrobromide] as the compound, how does the nuclei count read?
A: The nuclei count was 103.

Q: For O=C(O)C1=CCCN(CCON=C(c2ccccc2)c2ccccc2)C1, which nuclei count is on record?
A: The nuclei count was 98.8.

Q: c1ccc(CN(CC2=NCCN2)c2ccccc2)cc1 [Antazoline hydrochloride] was tested. Which nuclei count did it give?
A: The nuclei count was 89.7 ± 6.5.

Q: How did the nuclei count turn out when CC[C@H](C)C[C@H](C)CCCCCCCCC(=O)N[C@H]1C[C@@H](O)[C@@H](NCCN)NC(=O)[C@@H]2[C@@H](O)CCN2C(=O)[C@H]([C@H](O)CCN)NC(=O)[C@H]([C@H](O)[C@@H](O)c2ccc(O)cc2)NC(=O)[C@@H]2C[C@@H](O)CN2C(=O)[C@H]([C@@H](C)O)NC1=O [Caspofungin Acetate] was run?
A: The nuclei count was 101.

Q: Which nuclei count does the source give for Nc1ncnc2n[nH]c(Nc3ccc(F)cc3)c12 here?
A: Its nuclei count is 73.5.

Q: How did the nuclei count turn out when CC(=O)N(CC(O)CN(C(C)=O)c1c(I)c(C(=O)NCC(O)CO)c(I)c(C(=O)NCC(O)CO)c1I)c1c(I)c(C(=O)NCC(O)CO)c(I)c(C(=O)NCC(O)CO)c1I (centres undefined) [Iodixanol] was run?
A: Its nuclei count is 111.

Q: With CC(C(=O)O)c1ccc(C(=O)c2ccccc2)s1 (centres undefined) [Tiaprofenic acid] as the compound, how does the nuclei count read?
A: Its nuclei count is 103.

Q: CCCCC[C@H](O)/C=C/C=C\CCCCCCCC(=O)O [13(S)-Hydroxy-9Z,11E-octadecadienoic acid] was tested. Which nuclei count did it give?
A: Its nuclei count is 94.5.

Q: Which nuclei count does the source give for CN1C(C(=O)Nc2ccccn2)=C(O)c2sccc2S1(=O)=O [Tenoxicam] here?
A: Its nuclei count is 105.

Q: Which nuclei count does the source give for Cc1ncc([N+](=O)[O-])n1CC(O)CCl (centres undefined) [Ornidazole] here?
A: The nuclei count was 96.6.

Q: With NC(=O)N1c2ccccc2CC(O)c2ccccc21 (centres undefined) [Licarbazepine] as the compound, how does the nuclei count read?
A: Its nuclei count is 104.
